The record followed here is patent publication US20250059278A1 (SICHUAN HUIYU PHARMACEUTICAL, published 2025).

For test [1], the target named is T1, Monkey CD3 on cynomolgus HSC-F cells (cynomolgus monkey, UniProt Q95LI5 22-198; Q95LI7 23-181; Q95LI8 22-171).
T1 construct: whole, on cells; also called Monkey CD3-expressing cynomolgus HSC-F cells; cynomolgus monkey CD3-expressing HSC-F cells
Kind of test: flow cytometry on HSC-F cells.

Test [2] addresses T2, Human CD3εγ recombinant antigen (acrobiosystems, Cat. No. CDG-H52W5) (human, UniProt P07766 23-126; P09693 23-116).
T2 construct: Bought recombinant protein
Kind of test: SPR chip (Carterra), antibody captured, antigen in flow.

The target of test [3] is T3, Human CD3 on Jurkat cells (human, UniProt P07766; P09693; P04234).
T3 construct: whole, on cells; also called Human CD3-expressing Jurkat cells; Jurkat (naturally expressing human CD3)
Kind of test: flow cytometry on Jurkat cells. (In flow cytometry, cells or beads pass a laser one at a time.)

The target of test [4] is T3, Human CD3 on Jurkat cells. Kind of test: cell-based or functional assay.
T3 sequence (P07766 23-207, chain 1 of 3): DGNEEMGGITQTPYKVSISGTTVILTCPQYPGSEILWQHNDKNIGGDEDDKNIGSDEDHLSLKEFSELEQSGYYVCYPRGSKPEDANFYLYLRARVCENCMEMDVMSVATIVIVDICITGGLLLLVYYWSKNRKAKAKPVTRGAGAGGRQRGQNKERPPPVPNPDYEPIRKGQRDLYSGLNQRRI
T3 sequence (P09693 23-182, chain 2 of 3, further chain): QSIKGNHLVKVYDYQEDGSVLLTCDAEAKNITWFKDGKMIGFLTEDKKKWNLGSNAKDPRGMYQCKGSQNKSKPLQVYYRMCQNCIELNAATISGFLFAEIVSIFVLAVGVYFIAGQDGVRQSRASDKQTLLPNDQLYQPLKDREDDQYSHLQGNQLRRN
T3 sequence (P04234 22-171, chain 3 of 3, further chain): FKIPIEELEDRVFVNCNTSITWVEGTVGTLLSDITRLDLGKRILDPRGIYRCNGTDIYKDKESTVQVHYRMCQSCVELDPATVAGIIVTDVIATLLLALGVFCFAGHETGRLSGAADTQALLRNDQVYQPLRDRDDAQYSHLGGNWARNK

T1 sequence (Q95LI5 22-198, chain 1 of 3): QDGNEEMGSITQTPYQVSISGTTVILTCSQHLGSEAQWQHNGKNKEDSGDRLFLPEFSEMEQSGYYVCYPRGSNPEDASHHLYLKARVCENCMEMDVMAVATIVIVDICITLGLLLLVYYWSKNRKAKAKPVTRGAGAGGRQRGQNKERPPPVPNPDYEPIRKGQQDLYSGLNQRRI
T1 sequence (Q95LI7 23-181, chain 2 of 3, further chain): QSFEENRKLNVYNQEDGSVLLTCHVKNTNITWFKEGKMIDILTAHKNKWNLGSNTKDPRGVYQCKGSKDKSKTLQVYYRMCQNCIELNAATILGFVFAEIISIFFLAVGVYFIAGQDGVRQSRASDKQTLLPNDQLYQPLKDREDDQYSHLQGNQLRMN
T1 sequence (Q95LI8 22-171, chain 3 of 3, further chain): as the sequence (P04234 22-171, chain 3 of 3, further chain) above, with I5V, N15K, I20V, S32T, D33N, I34N, T64A, S74N, V83L, H141R counted along it

B1: CD3-MSLN bispecific antibody B8 (bispecific antibody, human IgG1, lambda)
heavy: EVQLVESGGGLVQPGGSLRLSCAASGFTFNTYAMNWVRQAPGKGLEWVARIRSKYNNYATYYADSVKDRFTISRDDSKSSLYLQMNNLKTEDTAMYYCVRHGNFGNTYVSWFAMWGQGTLVTVSSASTKGPSVFPLAPSSKSTSGGTAALGCLVKDYFPEPVTVSWNSGALTSGVHTFPAVLQSSGLYSLSSVVTVPSSSLGTQTYICNVNHKPSNTKVDKKV[letters of human IgG1 Fc with changes omitted]GGGGSGGGGSEVQLVESGGGLVQAGESLRLSCAVSGNIGSIRHMGWHRQDPGKERELVATITTVGTTYYANFVKGRFTISRDNAKNTVYLQMNSLKPEDTGVYYCRATAHPTDYWGQGTQVTVSS
light: [letters of about 100 residues omitted][letters of about 100 residues omitted]
notes: [VH8]-[CH]-[L]-[3C6 VHH] with [VL-1]-[CL]
In general, EC50 refers to the concentration at which the effect is half-maximal. As usually defined, the Kd is a measure of binding affinity in units of concentration. Usually koff stands for the first-order rate constant of dissociation. A word on the kon: it is a measure of how fast the partners come together. In test [1], B1 had an EC50 of 0.166 nM. In test [2], the Kd worked out at 6.1 nM, the koff is 0.0037 s⁻¹ and the kon was 610000 M⁻¹ s⁻¹. Moreover, the EC50 in test [3] was determined as 0.248 nM. In test [4], the “EC50 (nM), activation of Jurkat-TIGIT-luc cells with MC38/MSLN tumor cells” value (shortened to “EC50 (nM) … with MC38/MSLN tumor cells”) was determined as 0.021 nM and the “EC50 (nM), activation of T cell activation signaling pathway, Jurkat-TIGIT-luc cells without tumor cells” value was found to be 0.57 nM.

B2: CD3-MSLN bispecific antibody B3 (bispecific antibody, human IgG1, lambda)
heavy: EVQLVESGGGLVQPGGSLRLSCAASGFTFNTYAMNWVRQAPGKGLEWVARIRSKYNNYATYYADSVKDRFTISRDDSKSILYLQMNSLKTEDTAMYYCVRHGNFGNSYVSWFEYWGQGTLVTVSSASTKGPSVFPLAPSSKSTSGGTAALGCLVKDYFPEPVTVSWNSGALTSGVHTFPAVLQSSGLYSLSSVVTVPSSSLGTQTYICNVNHKPSNTKVDKKV[letters of human IgG1 Fc with changes omitted]GGGGSGGGGSEVQLVESGGGLVQAGESLRLSCAVSGNIGSIRHMGWHRQDPGKERELVATITTVGTTYYANFVKGRFTISRDNAKNTVYLQMNSLKPEDTGVYYCRATAHPTDYWGQGTQVTVSS
light: [letters of about 100 residues omitted][letters of about 100 residues omitted]
notes: [VH3]-[CH]-[L]-[3C6 VHH] with [VL-1]-[CL]
Regarding B2, the EC50 in test [1] was found to be 0.253 nM. Moreover, in test [2], the Kd came to 1.5 nM, the koff came out at 0.0017 s⁻¹ and the kon amounted to 1.2e+06 M⁻¹ s⁻¹. The molecule further yielded an EC50 in test [3] of 0.271 nM.

B3: CD3-MSLN bispecific antibody B33 (bispecific antibody, human IgG1, lambda)
heavy: EVQLVESGGGLVQPGGSLRLSCAASGFTFNTYAMNWVRQAPGKGLEWVARIRSKYNNYATYYADSVKGRFTISRDDSKSSLYLQMNSLKTEDTAVYYCVRHGNFGNNYVSWFASWGQGTLVTVSSASTKGPSVFPLAPSSKSTSGGTAALGCLVKDYFPEPVTVSWNSGALTSGVHTFPAVLQSSGLYSLSSVVTVPSSSLGTQTYICNVNHKPSNTKVDKKV[letters of human IgG1 Fc with changes omitted]GGGGSGGGGSEVQLVESGGGLVQAGESLRLSCAVSGNIGSIRHMGWHRQDPGKERELVATITTVGTTYYANFVKGRFTISRDNAKNTVYLQMNSLKPEDTGVYYCRATAHPTDYWGQGTQVTVSS
light: [letters of about 100 residues omitted][letters of about 100 residues omitted]
notes: [VH33]-[CH]-[L]-[3C6 VHH] with [VL-1]-[CL]
The molecule B3 registered an EC50 in test [1] of 1.85 nM. Further, in test [2], the Kd was 23 nM, the koff came to 0.0064 s⁻¹ and the kon was determined as 280000 M⁻¹ s⁻¹. In addition, the EC50 in test [3] stood at 4.46 nM. Further, in test [4], the “EC50 (nM) … with MC38/MSLN tumor cells” value amounted to 0.026 nM and the “EC50 (nM), activation of T cell activation signaling pathway, Jurkat-TIGIT-luc cells without tumor cells” value was 0.88 nM.

B4: CD3-MSLN bispecific antibody B43 (bispecific antibody, human IgG1, lambda)
heavy: EVQLVESGGGLVQPGGSLRLSCAASGFTFNTYAMNWVRQAPGKGLEWVARIRSKYNNYATYYADSVKDRFTISRDDSKSILYLQMNSLKTEDTAMYYCVRPGNFPNSYVSWFALWGQGTLVTVSSASTKGPSVFPLAPSSKSTSGGTAALGCLVKDYFPEPVTVSWNSGALTSGVHTFPAVLQSSGLYSLSSVVTVPSSSLGTQTYICNVNHKPSNTKVDKKV[letters of human IgG1 Fc with changes omitted]GGGGSGGGGSEVQLVESGGGLVQAGESLRLSCAVSGNIGSIRHMGWHRQDPGKERELVATITTVGTTYYANFVKGRFTISRDNAKNTVYLQMNSLKPEDTGVYYCRATAHPTDYWGQGTQVTVSS
light: [letters of about 100 residues omitted][letters of about 100 residues omitted]
notes: [VH43]-[CH]-[L]-[3C6 VHH] with [VL-1]-[CL]
In test [1], B4 returned an EC50 of 0.401 nM. Also, in test [2], the Kd was 15 nM, the koff was determined as 0.0017 s⁻¹ and the kon was 110000 M⁻¹ s⁻¹. Besides, a half-maximal response in test [3] (EC50) required 9.8 nM. Moreover, in test [4], the “EC50 (nM) … with MC38/MSLN tumor cells” value was 0.006 nM and the “EC50 (nM), activation of T cell activation signaling pathway, Jurkat-TIGIT-luc cells without tumor cells” value was 0.52 nM.

B5: CD3-MSLN bispecific antibody B46 (bispecific antibody, human IgG1, lambda)
heavy: EVQLVESGGGLVQPGGSLRLSCAASGFTFNTYAMNWVRQAPGKGLEWVARIRSKYNNYATYYADSVKDRFTISRDDSKSILYLQMNSLKTEDTAMYYCVRHANFGNSYVSWFASWGQGTLVTVSSASTKGPSVFPLAPSSKSTSGGTAALGCLVKDYFPEPVTVSWNSGALTSGVHTFPAVLQSSGLYSLSSVVTVPSSSLGTQTYICNVNHKPSNTKVDKKV[letters of human IgG1 Fc with changes omitted]GGGGSGGGGSEVQLVESGGGLVQAGESLRLSCAVSGNIGSIRHMGWHRQDPGKERELVATITTVGTTYYANFVKGRFTISRDNAKNTVYLQMNSLKPEDTGVYYCRATAHPTDYWGQGTQVTVSS
light: [letters of about 100 residues omitted][letters of about 100 residues omitted]
notes: [VH46]-[CH]-[L]-[3C6 VHH] with [VL-1]-[CL]
In turn, B5 had an EC50 in test [1] of 0.15 nM. In test [2], the Kd turned out to be 1.6 nM, the koff amounted to 0.0016 s⁻¹ and the kon stood at 1e+06 M⁻¹ s⁻¹. Moreover, a half-maximal response in test [3] (EC50) required 0.203 nM.

B6: CD3-MSLN bispecific antibody B22 (bispecific antibody, human IgG1, lambda)
heavy: EVQLVESGGGLVQPGGSLRLSCAASGFTFNTYAMNWVRQAPGKGLEWVARIRSKYNNYATYYADSVKGRFTISRDDSKSILYLQMNSLKTEDTAMYYCVRHERFGNSYVSWFAYWGQGTLVTVSSASTKGPSVFPLAPSSKSTSGGTAALGCLVKDYFPEPVTVSWNSGALTSGVHTFPAVLQSSGLYSLSSVVTVPSSSLGTQTYICNVNHKPSNTKVDKKV[letters of human IgG1 Fc with changes omitted]GGGGSGGGGSEVQLVESGGGLVQAGESLRLSCAVSGNIGSIRHMGWHRQDPGKERELVATITTVGTTYYANFVKGRFTISRDNAKNTVYLQMNSLKPEDTGVYYCRATAHPTDYWGQGTQVTVSS
light: [letters of about 100 residues omitted][letters of about 100 residues omitted]
notes: [VH22]-[CH]-[L]-[3C6 VHH] with [VL-1]-[CL]
B6 returned an EC50 in test [1] of 0.262 nM. For the same molecule, in test [2], the Kd is 21 nM, the koff stood at 0.0029 s⁻¹ and the kon was 140000 M⁻¹ s⁻¹. The same molecule gave an EC50 in test [3] of 2.23 nM. In test [4], the “EC50 (nM) … with MC38/MSLN tumor cells” value was 0.007 nM and the “EC50 (nM), activation of T cell activation signaling pathway, Jurkat-TIGIT-luc cells without tumor cells” value was found to be 0.91 nM.

B7: CD3-MSLN bispecific antibody B37 (bispecific antibody, human IgG1, lambda)
heavy: EVQLVESGGGLVQPGGSLRLSCAASGFTFNTYAMNWVRQAPGKGLEWVARIRSKYNNYATYYADSVKDRFTISRDDSKSILYLQMNNLKTEDTAMYYCVRHANFSNSYVSWFAYWGQGTLVTVSSASTKGPSVFPLAPSSKSTSGGTAALGCLVKDYFPEPVTVSWNSGALTSGVHTFPAVLQSSGLYSLSSVVTVPSSSLGTQTYICNVNHKPSNTKVDKKV[letters of human IgG1 Fc with changes omitted]GGGGSGGGGSEVQLVESGGGLVQAGESLRLSCAVSGNIGSIRHMGWHRQDPGKERELVATITTVGTTYYANFVKGRFTISRDNAKNTVYLQMNSLKPEDTGVYYCRATAHPTDYWGQGTQVTVSS
light: [letters of about 100 residues omitted][letters of about 100 residues omitted]
notes: [VH37]-[CH]-[L]-[3C6 VHH] with [VL-1]-[CL]
On to B7, for which the EC50 in test [1] was 0.216 nM. For the same molecule, in test [2], the Kd worked out at 5.5 nM, the koff is 0.0046 s⁻¹ and the kon was found to be 830000 M⁻¹ s⁻¹. Besides, the EC50 in test [3] was found to be 0.226 nM. In addition, in test [4], the “EC50 (nM) … with MC38/MSLN tumor cells” value is 0.037 nM.

B8: CD3-MSLN bispecific antibody B13 (bispecific antibody, human IgG1, lambda)
heavy: EVQLVESGGGLVQPGGSLRLSCAASGFTFNTYAMNWVRQAPGKGLEWVARIRSKYNNYATYYADSVKGRFTISRDDSKSSLYLQMNSLKTEDTAVYYCVRHGNFKNSYGSWFAYWGQGTLVTVSSASTKGPSVFPLAPSSKSTSGGTAALGCLVKDYFPEPVTVSWNSGALTSGVHTFPAVLQSSGLYSLSSVVTVPSSSLGTQTYICNVNHKPSNTKVDKKV[letters of human IgG1 Fc with changes omitted]GGGGSGGGGSEVQLVESGGGLVQAGESLRLSCAVSGNIGSIRHMGWHRQDPGKERELVATITTVGTTYYANFVKGRFTISRDNAKNTVYLQMNSLKPEDTGVYYCRATAHPTDYWGQGTQVTVSS
light: [letters of about 100 residues omitted][letters of about 100 residues omitted]
notes: [VH13]-[CH]-[L]-[3C6 VHH] with [VL-1]-[CL]
In test [1], B8 showed an EC50 of 0.247 nM. Further, in test [2], the Kd is 5 nM, the koff was 0.00065 s⁻¹ and the kon turned out to be 130000 M⁻¹ s⁻¹. The midpoint of the response in test [3], the EC50, lay at 0.778 nM. Moreover, the “EC50 (nM) … with MC38/MSLN tumor cells” value in test [4] came to 0.012 nM.
